Source: the supplement of paper PMC11417369
± gives the standard deviation of the averaged measurements. The list shows a part of the results.

Tested on: PfAP2-LT AP2 domain (GST-tagged)
Experiment: gcPBM binding intensity (ln(normalized median fluorescence intensity)); higher = stronger DNA binding
Method in brief: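 Alexa488 anti-GST antibody, scanned at 488 nm, detected GST-tagged P. falciparum DNA-binding domains that had been expressed in E. coli and incubated for 1 h on an Agilent 4 × 180k array. The array carried primer-extended double-stranded 36-bp intergenic genomic probes and negative controls. Binding intensity is the highest Masliner-normalised natural-log median intensity across replicate spots of either orientation of each probe.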

Row | Sequence | gcPBM binding intensity (ln)
1 | ATATTTATAACTTGGTGTACTTTGAAAAAAAAAAAA [XGTACX_site5194] | 8.27 ± 0.37
2 | AAAAAAAAAAAAAACACACATACATACATACATATA [CACACA_site4121] | 9.13 ± 0.38
3 | ATAATTTTTTAGATCACACATATAAATAAATAAATA [CACACA_site5175] | 8.44 ± 0.59
4 | TTATATTAGCCGATGGTGCATATATTTATAGGAAAA [GTGCAC_site9518] | 8.41 ± 0.55
5 | AAAAAAATTAAATGGGGTACAATAAGGGTCAAATAT [XGTACX_site8669] | 9.05 ± 0.47
6 | GGATAATCATACGAAGCATGCTGAATTTCCAAATAA [TGCATGCA_site1013] | 8.89 ± 0.48
7 | TTTTATTATATATATTGTACATATATTTTTATTTTT [XGTACX_site1564] | 8.77 ± 0.42
8 | AAAAAAAAAAATGGCTGTACATAATATTTAAATAGG [XGTACX_site4286] | 8.72 ± 0.46
9 | TACTGTATTATAATTATGATTGACGAAATTAAAAAT [GTGCAC_negctrl_site358] | 8.53 ± 0.42
10 | ATTAGAAAAAAGATAGCACACACGGCCCAATATATA [CACACA_site2417] | 9.24 ± 0.42
11 | TGAAATTTATAATAGTGTACAAAGAAAAAAAAAAAA [XGTACX_site4965] | 8.65 ± 0.6
12 | AAGGTTATATAAAAAAGTACGCATAAGATGTTGTTC [XGTACX_site807] | 8.88 ± 0.43
13 | CAATATAAAATAAAATGTACTTGTAGTAAAGGGATA [XGTACX_site1452] | 9.03 ± 0.51
14 | ATAAAGGTTTTCCAAGCATGCCACATAGTGACATAC [TGCATGCA_site193] | 8.64 ± 0.39
15 | AGATAGATACATACACGTACATATATATATACACAT [XGTACX_site4755] | 9.18 ± 0.35
16 | GATGAGGACAAACACACACACATAAGTTGATACATA [CACACA_site3424] | 9.68 ± 0.39
17 | TTTATGGATGTGTATGCATGCCTAAATAAATATATG [TGCATGCA_site916] | 8.79 ± 0.41
18 | TAAATAATGTAAAAAACATCATCAAAATGTTAATTA [CACACA_negctrl_site1768] | 8.45 ± 0.51
19 | TCTCAAAAAAAAAAAAAAAAAAAAAAATTAAAAAAT [CACACA_negctrl_site1120] | 8.22 ± 0.51
20 | ACGACATATGGATGATGTACTATCTTTATTATACAT [XGTACX_site6857] | 8.95 ± 0.43
21 | TAGAATAAACCAAGAAGTACTGTTTAATGAAAAGTA [XGTACX_site5712] | 8.79 ± 0.5
22 | ATACCTAAAAAATATACACACATATTTATAAATATA [CACACA_site7260] | 8.93 ± 0.4

Row | Sequence | gcPBM binding intensity (ln)
23 | TATAAATATATATATACACACACATACACAAAAAAA [CACACA_site9191] | 9.71 ± 0.27
24 | ATATATTATATGTACACACACATATAAGGGATTATA [CACACA_site5] | 9.28 ± 0.4
25 | TATTACTTGATATATACACACATATAACATAAATGC [CACACA_site7783] | 8.94 ± 0.29
26 | AAAAATATGAAGACACAATATAGAAATAAAAATATA [XGTACX_negctrl_site244] | 8.79 ± 0.5
27 | TATTATAATATGTAGCGTACATTTTTTCTTTCTTTT [XGTACX_site7831] | 8.73 ± 0.49
28 | TAAACAGACATATAAACACACATATAAACCGACATA [CACACA_site2478] | 9.4 ± 0.48
29 | TATATTTATATTCTTACATTTTTTATGTTTTTTTTT [CACACA_negctrl_site1017] | 8.66 ± 0.58
30 | AAAATAACATAAAAGAGTACTAAACCAAGATCAAAT [XGTACX_site7973] | 9.11 ± 0.48
31 | GTCATATTATTCTTTTCACACACGCGTTAATAATAA [CACACA_site9302] | 9.46 ± 0.45
32 | CACATTATGTATCATACACACAAATAAATATATAAT [CACACA_site4505] | 9.33 ± 0.41
33 | ATATTATTAATATATTGTACTTTTTTTTTTTTATTT [XGTACX_site496] | 8.68 ± 0.51
34 | ATATGTATTTAATTCACACAAAAATATGTTCATGAA [CACACA_site5223] | 8.59 ± 0.38
35 | ATATTTTATTTTCCATGTACACAAAAAAAAAAAAAA [XGTACX_site8327] | 8.26 ± 0.34
36 | TTTTTTTTTTTCTTTGCACACAGATAACTTGAAATT [CACACA_site2184] | 8.96 ± 0.45
37 | AATTTAATTATGGTAACACACAATAAAAAAAAATCT [CACACA_site568] | 8.8 ± 0.38
38 | AGGTTAAAAATAAATACACACATTTTATGGGTGTAT [CACACA_site4702] | 8.85 ± 0.47
39 | AAGAAAATAAAGGATATGAAAAATAAAAAAAAGGAG [TGCATGCA_negctrl_site265] | 8.74 ± 0.48
40 | TGAAAATAATTATAGGTGCATAAACATACGGATCTT | 8.89 ± 0.45
41 | TTTTTTTTGTATTTTTCACACACTCTCTATCTCTCT [CACACA_site8655] | 9.2 ± 0.71
42 | TATAAAAATAATATTACACACATGTAAAATGCCCGT [CACACA_site7522] | 9.16 ± 0.36
43 | ATATATTAATAATAAATTAAAAGGAGTAACATTTTC [CACACA_negctrl_site320] | 8.54 ± 0.46
44 | CGCATACACGGACACACACACACATATATATATATA [CACACA_site4520] | 10.23 ± 0.071

Row | Sequence | gcPBM binding intensity (ln)
45 | TAAAATAATTCGTAACGTACATATGTAATATAATAT [XGTACX_site6126] | 9.09 ± 0.33
46 | TAATATATAAGAAACAAAAAAAAATAAAAATATATA [TGCATGCA_negctrl_site153] | 8.54 ± 0.54
47 | AAAAAAAAAAAACACACACACACACTAATATATAAA [CACACA_site8302] | 10.3 ± 0.35
48 | GGTATAAAGAAATTTTGTACATATTTCTCCCTTTAA [XGTACX_site1874] | 8.46 ± 0.4
49 | ATTTCTCAATCGTAATGTACAAAAAAAAGGAAAAAA [XGTACX_site1193] | 8.52 ± 0.61
50 | TTATATAGATGGAATAGTACAGTATATATATATATA [XGTACX_site8755] | 9.51 ± 0.48
51 | AGCTCTATATTTTACACATGCGATTTGGATATATAT [TGCATGCA_site105] | 9.04 ± 0.35
52 | TAAATATATATCATCACACACACATACATAAATATA [CACACA_site183] | 9.54 ± 0.23
53 | CCTTTATATTATAAAAGTACATAATATTTTATAAGT [XGTACX_site1629] | 8.29 ± 0.39
54 | ATATTACAACGTAACGAATATTTCATAAATTCTTAA [CACACA_negctrl_site770] | 8.56 ± 0.42
55 | CTTGACCCCCTTTGTTGTACTGACATTTGTGAGCTT [XGTACX_site591] | 9.06 ± 0.32
56 | ATTTTTTCAAAATGGAAAACTTATCAGTGAAAAAAA [CACACA_negctrl_site1087] | 8.44 ± 0.55
57 | TATTTTATATGATAGGTGCATTTTTTTTTTTTTTTT [GTGCAC_site9757] | 8.58 ± 0.52
58 | ATTTTTTTATACAATTTTATATATTAAATATTATAA [GTGCAC_negctrl_site86] | 8.24 ± 0.39
59 | TGTATTTTTAACATATGTACGAATAGCACGTGTTAT [XGTACX_site3640] | 8.85 ± 0.41
60 | TAAAAATGGGAGGGGTGTACTACACAATAAAATTAT [XGTACX_site5641] | 8.94 ± 0.35
61 | TTTGTGTAAAGAATCAGTACATATAATATATATATA [XGTACX_site1972] | 8.74 ± 0.39
62 | TTAATAATGTTTTATTGTACTTTTTTGTGGGTTTAT [XGTACX_site5670] | 8.89 ± 0.48
63 | ATATGTATTGGAGTGTGTACATATATATATATTTAT [XGTACX_site5633] | 9.07 ± 0.35
64 | GTGCTACATCATATGTGTACATATACCAAACTGTAT [XGTACX_site8233] | 9.04 ± 0.33
65 | ATATACATTCAAGGCTGTACACTATATTTTTTTTTT [XGTACX_site6514] | 8.97 ± 0.53
66 | AGTATACACGAACACACACACACATATATAAATATA [CACACA_site6913] | 10.2 ± 0.4

Row | Sequence | gcPBM binding intensity (ln)
67 | TAAAGTATTACAACCACACACACACCCATATATTAT [CACACA_site4159] | 9.93 ± 0.36
68 | TATAAAATTATTAAACAAGAAAATTTTAGGTAATAC [TGCATGCA_negctrl_site568] | 8.54 ± 0.54
69 | TATAATATATTTTGATGTACAAATATATTATATATA [XGTACX_site8633] | 8.37 ± 0.34
70 | ATAATATATTTTTGAACACACAATATATATATATAT [CACACA_site4124] | 9.06 ± 0.14
71 | ATATAAATATGACACACACACAAAAAAAATAAAGAC [CACACA_site6208] | 9.91 ± 0.26
72 | TTGATAAAACGTTATGCACACGTACGTGGGTATTTA [CACACA_site8445] | 9.04 ± 0.32
73 | TAATTTAAAAATTCCTGTACTCAGTTTTTTCTATTT [XGTACX_site4961] | 8.56 ± 0.67
74 | TAAGTGTATGTATATAAACACACATACATATATATA [CACACA_site8397] | 9.14 ± 0.38
75 | AATCAAAATAATTTAACACACAATTTTAATACTGTT [CACACA_site2375] | 8.8 ± 0.42
76 | AAATTCCATGAAAAAAGTACTAATTAATACAATATA [XGTACX_site2877] | 8.66 ± 0.45
77 | TTTAAGAATTAACGGGGTACAATTCTTAAATATATA [XGTACX_site669] | 8.39 ± 0.26
78 | TAGAAGTACATATATGCATGTTAATTTTAAAGGAGG [TGCATGCA_site538] | 8.85 ± 0.45
79 | ATTAAAAATATTAGTTGTACTTTATATTTTCATATA [XGTACX_site3614] | 8.5 ± 0.41
80 | ATATATATATAGTGTTGTACATTTAAAAATAATATA [XGTACX_site2627] | 8.69 ± 0.4
81 | TGTTTTATTTTTTTTGTGCACATACCTTTAGCATCA [GTGCAC_site9812] | 8.92 ± 0.51
82 | TAATTATAATAAATATTCATATGTTCAAATATATAT [CACACA_negctrl_site151] | 8.41 ± 0.4
83 | ATGTGATAGAAGTACACACACATATGTATTTATAAT [CACACA_site5075] | 9.49 ± 0.33
84 | TATATATAATTCATACATTTTAAATATATTTATTTA [CACACA_negctrl_site840] | 8.47 ± 0.35
85 | TTTTAAAAACGGCATGCATGTAATACATGGAAGGAA [TGCATGCA_site480] | 9.09 ± 0.36
86 | TATAATAATATAATGGTGCATGTATATAACCATATA | 8.71 ± 0.38
87 | TTTGTTGACAGACACACACACATACATATATATATA [CACACA_site2288] | 9.78 ± 0.24
88 | AAATAAATATAAATAAATAAATAAATAAATATATAT [CACACA_negctrl_site827] | 8.69 ± 0.36
